# Data published in PubChem BioAssay (NCATS).
# The shares of active, inactive and inconclusive entries below differ from those in the screen. For some of these results: No potency is given beside an inconclusive call; the fits are too rough. The source made the active and inactive calls. Calls follow the shape of the dose curve; as a rule, active = well fitted curve in the direction sought with a large enough effect; inconclusive = small, poorly fitted or top-dose-only effect, or another doubt; inactive = no such curve, though single readings can be large; an effect the other way counts as inactive or inconclusive.
# Key:
# [1] = NS1 protein of Zika virus - qHTS assay to identify small molecule inhibitors in human HEK 293 cells (AID 1347053); also: nearly all actives have a fitted effect of over 55% in size
# How it was run: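 HEK 293 cells pretreated with compound for 1 h, then infected with ZIKV MR766 (MOI 0.5) for 24 h at 37 C. NS1 detected by TR-FRET with two anti-NS1 antibodies; normalized to uninfected (0%) and infected (100%) wells.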
# [2] = qHTS of pediatric cancer cell lines to identify multiple opportunities for drug repurposing: Confirmatory screen for A673 cells (AID 1347110);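 also: cells exposed to compound for 48 h before the viability read; nearly all actives have a fitted effect of over 65% in size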
# How it was run: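 Forty-eight-hour viability assay. Follow-up compounds ran at 11-point dilutions; positive control bortezomib at 2.3 uM final, neutral control DMSO.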
# [3] = qHTS of pediatric cancer cell lines to identify multiple opportunities for drug repurposing: Confirmatory screen for LAN-5 cells (AID 1347113); also: nearly all actives have a fitted effect of over 65% in size
# How it was run: (§1)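 Cells (500-1,000/well) rested 5 h, then received compounds for 48 h; metabolically active cells were measured by CellTiter-Glo luminescence. Final concentrations spanned up to 46 µM (MIPE, 11-point) or 0.59 nM-46 µM (NPC, 8-point) in primary screens, 11-point in follow-ups.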
# [4] = qHTS of pediatric cancer cell lines to identify multiple opportunities for drug repurposing: Confirmatory screen for DAOY cells (AID 1347114); also: nearly all actives have a fitted effect of over 65% in size
# How it was run: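 Viability measured as metabolically active cells via CellTiter-Glo luminescence following 48 hours of compound exposure, 11-point dilutions in confirmatory testing. 500-1,000 cells/well plated 5 hours before dosing; controls were DMSO and 2.3 µM bortezomib.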
# [5] = qHTS of pediatric cancer cell lines to identify multiple opportunities for drug repurposing: Confirmatory screen for MG 63 (6-TG R) cells (AID 1347119); also: nearly all actives have a fitted effect of over 55% in size
# How it was run: as §1
# [6] = qHTS of pediatric cancer cell lines to identify multiple opportunities for drug repurposing: Confirmatory screen for RD cells (AID 1347124); settings: RD rhabdomyosarcoma cell viability; activity change, negative = cytotoxic: at 45.9 µM (top of the series);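 also: cells exposed to compound for 48 h before viability readout; nearly all actives have a fitted effect of over 65% in size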
# How it was run: as §1
# [7] = Primary qHTS for small molecule stabilizers of the endoplasmic reticulum resident proteome: Secreted ER Calcium Modulated Protein (SERCaMP) assay (AID 1508630); settings: SH-SY5Y GLuc-SERCaMP (Gaussia luciferase released on ER calcium loss) secretion, thapsigargin, luminescence; series mostly up to 38.4 µM
# How it was run: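 GLuc-SERCaMP-expressing SH-SY5Y cells, pretreated 16 h with compound, are challenged with thapsigargin to empty ER calcium stores; after 4 h, coelenterazine is added directly to the medium and luminescence is imaged.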
# [8] = Quantitative High-Throughput drug screen in 47 multiple myeloma cell lines against the NCATS MIPE library collection: EJM_DSMZ cell viability assay (AID 1918926; also: nearly all actives have a fitted effect of over 30% in size)
# How it was run: (§2)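 Relative luminescence from CellTiter-Glo served as the viability signal, referenced to DMSO-treated (100%) and cell-free medium (0%) controls. Treatment lasted 48 hours at 37C with 500 cells per well.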
# [9] = Quantitative High-Throughput drug screen in 47 multiple myeloma cell lines against the NCATS MIPE library collection: MMM1_PLB cell viability assay (AID 1918976); also: nearly all actives have a fitted effect of over 35% in size
# How it was run: (§3)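 Plated at 500 cells per well, myeloma lines received MIPE 4.0 compounds by pin tool. Following 48 h culture at 37 °C, CellTiter-Glo luminescence gave viability relative to DMSO and media-only controls.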
# [10] = Quantitative High-Throughput drug screen in 47 multiple myeloma cell lines against the NCATS MIPE library collection: OCIMY1_PLB cell viability assay (AID 1918979); also: nearly all actives have a fitted effect of over 35% in size
# How it was run: as §3
# MCC-26 = assay: qHTS assay to identify novel small-molecules to repurpose for Merkel cell carcinoma treatment (AID 1296009); settings: MCC and control cell lines, CellTiter-Glo viability, 72 h; series mostly up to 46 µM; also: nearly all actives have a fitted effect of over 60% in size
# How it was run: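 After compound transfer in DMSO, plates were kept 72 hr at 37 degree celsius. Luminescent ATP signal from CellTiter-Glo served as viability measure, normalized against DMSO and no-cell controls.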
# [11] = qHTS of pediatric cancer cell lines to identify multiple opportunities for drug repurposing: Primary screen for MG 63 (6-TG R) cells (AID 1347105); settings: MG 63 (6-TG R) viability, CellTiter-Glo, 48 h; activity change, negative = cytotoxic: at 46 µM (top of the series); also: nearly all actives have a fitted effect of over 50% in size
# How it was run: (§4)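 Phenotypic viability qHTS, 48 h compound exposure, CellTiter-Glo luminescence read-out; multi-concentration dosing so that potency and efficacy derive directly from the primary screen's curves.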
# [12] = qHTS of pediatric cancer cell lines to identify multiple opportunities for drug repurposing: Primary screen for control Hh wild type fibroblast cells (AID 1347106); also: nearly all actives have a fitted effect of over 55% in size;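 as to activity change, negative = cytotoxic: a drop in luminescence marks cytotoxicity and a rise apparent proliferation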
# How it was run: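 Viability after 48 h compound treatment at 37C, 500-1,000 cells/well, read as ATP luminescence with CellTiter-Glo. Primary screens used 11-point (MIPE, 0.78 nM-46 µM) or 8-point (NPC, 0.59 nM-46 µM) final concentrations; follow-up screens used 11-point dilutions.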
# [13] = test system: Nanoluciferase (engineered Oplophorus gracilirostris luciferase); assay: Primary Nanoluciferase (NLuc) qHTS assay for identification of artifact compounds. (AID 1845222)
# How it was run: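 Luminescence from secreted NLuc (filtered, 1:55-diluted S16 cell medium) read 5 min after Nano-Glo substrate; compounds preincubated 15 min, RT. Hill fits of inhibition normalized to DMSO and no-enzyme.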
# [14] = Quantitative High-Throughput drug screen in 47 multiple myeloma cell lines against the NCATS MIPE library collection: ARP1_JJKsccF8 cell viability assay (AID 1918928; also: nearly all actives have a fitted effect of over 40% in size)
# How it was run: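 Myeloma cells at 500 per well in 1536-well format treated with MIPE 4.0 library by pin transfer for 48 h at 37C, 5% CO2. Viability from ATP luminescence (CellTiter-Glo), normalized to DMSO (100%) and media-only (0%) wells.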
# [15] = Quantitative High-Throughput drug screen in 47 multiple myeloma cell lines against the NCATS MIPE library collection: KMS27_JCRB cell viability assay (AID 1918970); settings: KMS27 myeloma cells, CellTiter-Glo ATP viability, 48 h; viability (% of DMSO): at 45.8 µM (top of the series); also: nearly all actives have a fitted effect of over 30% in size
# How it was run: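 Each line is seeded at 500 cells per well and treated with library compounds for 48 hours under 37 °C, 5% CO2. CellTiter-Glo is then added for 5 min at room temperature before median relative luminescence is recorded.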
# [16] = Quantitative High-Throughput drug screen in 47 multiple myeloma cell lines against the NCATS MIPE library collection: KMS20_JCRB cell viability assay (AID 1918973); settings: CellTiter-Glo ATP, 48 h; viability (% of DMSO): at 45.8 µM (top of the series); also: nearly all actives have a fitted effect of over 45% in size
# How it was run: as §2
# [17] = Quantitative High-Throughput drug screen in 47 multiple myeloma cell lines against the NCATS MIPE library collection: KMS26_JCRB cell viability assay (AID 1918975); also: nearly all actives have a fitted effect of over 45% in size
# How it was run: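 Approved and investigational drugs from MIPE 4.0 were added by pin tool to 500 cells per well. After 48 hours at 37C, ATP-based CellTiter-Glo luminescence indicated remaining viability.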
# [18] = Quantitative High-Throughput drug screen in 47 multiple myeloma cell lines against the NCATS MIPE library collection: LP1_DSMZ cell viability assay (AID 1918982); also: nearly all actives have a fitted effect of over 35% in size
# How it was run: as §3
# [19] = qHTS of pediatric cancer cell lines to identify multiple opportunities for drug repurposing: Primary screen for RD cells (AID 1347104); settings: RD rhabdomyosarcoma viability, CellTiter-Glo luminescence, 48 h; activity change, negative = cytotoxic: at 46 µM (top of the series); also: nearly all actives have a fitted effect of over 55% in size
# How it was run: as §4
# Potency is read from the fitted curve at half-maximal effect; tags tell the direction and shape of the fitted curve.
compound,measurement,setting,value
O=C1NCCc2[nH]c(-c3ccncc3)cc21,Potency,[1],active: 9.35 µM
same,Potency,[2],active: 2.08 µM
same,Potency,[3],"inconclusive [cytotoxic, full curve]"
same,Potency,[4],active: 4.14 µM
same,Potency,[5],active: 8.27 µM
same,Potency,[6],"inconclusive [cytotoxic, full curve]"
same,Potency,[7],inactive
same,Potency,[8],active: 1.87 µM
same,Potency,[9],active: 16.6 µM
same,Potency,[10],active: 5.9 µM
same,Potency,MCC-26,"inconclusive [inhibitor, full curve]"
CNC(=O)c1ccccc1Sc1ccc2c(/C=C/c3ccccn3)n[nH]c2c1,Potency,[11],"inconclusive [cytotoxic, full curve, poor fit]"
same,Potency,[12],"inconclusive [cytotoxic, partial curve]"
Cc1noc(-c2ccc(-c3ccc(CC(=O)O)cc3)cc2)c1NC(=O)O[C@H](C)c1ccccc1,Potency,[13],active: 10.7 µM
Cc1c(Cn2c(C)nc3c(C(=O)O)cc(N4CCOCC4)cc32)cccc1C(F)(F)F,Potency,[2],inactive
same,Potency,[3],"inconclusive [rising, single point]"
same,Potency,[4],"inconclusive [cytotoxic, full curve]"
same,Potency,[6],inactive
same,Potency,[8],"inconclusive [cytotoxic, full curve]"
same,Potency,[14],"inconclusive [cytotoxic, full curve, poor fit]"
same,Potency,[15],"inconclusive [cytotoxic, partial curve]"
same,Potency,[16],active: 0.0935 µM
same,Potency,[17],"inconclusive [cytotoxic, partial curve, poor fit]"
same,Potency,[9],"inconclusive [rising, partial curve, poor fit]"
CCS(=O)(=O)Nc1ccc2[nH]c(O)c(C(=Nc3ccc(CN4CCCCC4)cc3)c3ccccc3)c2c1,Potency,[11],active: 5.9 µM
same,Potency,[5],active: 0.329 µM
same,Potency,[7],inactive
same,Potency,[16],active: 0.296 µM
same,Potency,[17],active: 0.469 µM
same,Potency,[10],active: 5.9 µM
same,Potency,[18],active: 7.43 µM
same,Potency,MCC-26,active: 1.48 µM
[Cl][In]([Cl])[Cl],Potency,[19],"inconclusive [cytotoxic, partial curve]"
same,Potency,[7],"inconclusive [inhibitor, partial curve, poor fit]"
Cc1ncc([N+](=O)[O-])n1C,Potency,[12],inactive
same,Potency,MCC-26,inactive
CC(=O)O[C@@H]1C(=O)O[C@@H]2[C@H]1OC(=O)[C@@H]2OC(C)=O,Potency,[11],"inconclusive [cytotoxic, partial curve, poor fit]"
same,Potency,[12],"inconclusive [cytotoxic, partial curve, poor fit]"
same,Potency,[2],inactive
same,Potency,[4],"inconclusive [cytotoxic, full curve]"
same,Potency,[5],inactive
same,Potency,[6],active: 1.17 µM
same,Potency,[7],"inconclusive [inhibitor, full curve, poor fit]"
C[C@H]1O[C@@H](n2cc(F)c(=O)[nH]c2=O)[C@H](O)[C@@H]1O,Potency,[11],inactive
NC(=O)C1(N2CCCCC2)CCN(CCCN2c3ccccc3CCc3ccc(Cl)cc32)CC1,Potency,[1],"inconclusive [inhibitor, single point]"
same,Potency,[19],"inconclusive [cytotoxic, single point]"
same,Potency,[12],"inconclusive [cytotoxic, single point]"
CNC(=O)c1ccccc1Sc1ccc2c(C=Cc3ccccn3)n[nH]c2c1,Potency,[19],"inconclusive [cytotoxic, single point]"
same,Potency,[11],"inconclusive [cytotoxic, partial curve]"
same,Potency,[14],"inconclusive [cytotoxic, partial curve]"
same,Potency,[15],"inconclusive [cytotoxic, partial curve, poor fit]"
same,Potency,[16],"inconclusive [cytotoxic, partial curve, poor fit]"
same,Potency,[17],"inconclusive [cytotoxic, partial curve, poor fit]"
CCO[C@@H]1O[C@H](C(COCc2ccccc2)OCc2ccccc2)[C@H](OCc2ccccc2)[C@H]1O (stereo partly specified),Potency,[19],"inconclusive [cytotoxic, single point]"
same,Potency,[7],inactive
Cn1nc(-c2ccc(C(F)(F)F)cc2)nc2c(=O)n(C)c(=O)nc1-2,Potency,[13],active: 3.01 µM
CC(C)=CCC/C(C)=C/CC/C(C)=C/C(=O)OCC(=O)[C@@]1(O)CC[C@H]2[C@@H]3CCC4=CC(=O)C=C[C@]4(C)[C@H]3[C@@H](O)C[C@@]21C,Potency,[2],"inconclusive [cytotoxic, single point]"
same,Potency,[3],"inconclusive [cytotoxic, single point]"
same,Potency,[5],"inconclusive [cytotoxic, single point]"
same,Potency,[6],"inconclusive [cytotoxic, single point]"
same,Potency,[7],inactive
